The text below walks through data of PubChem BioAssay AID1508642 (National Center for Advancing Translational Sciences (NCATS), 2021).

The whole screen tested about 43,000 compounds, of which about 200 (0.47%) were called active. Inconclusive results (about 12%) are left out. Calls come from the whole dose curve; as a rule, active = well fitted cell-killing curve with a large enough effect; inconclusive = small, poorly fitted or top-dose-only effect, or effect the other way; inactive = flat fitted curve, though single readings scatter. The list shows a part of the results.
% is set by controls: 0 for no effect and ±100 for the full control effect.

This experiment in a line: Cell viability qHTS assay in S16 Pmp22-F2sN cells. Note: nearly all actives have a fitted effect of over 65% in size. Conditions: S16 Pmp22-F2sN Schwann cells viability, CellTiter-Glo, 24 h; series mostly up to 57.5 µM; activity change, negative = cytotoxicity: at the top concentration. The gist of the method:
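S16 Pmp22-F2sN Schwann cells (500-1,000/well) in phenol-red-free DMEM with 10% FBS received 23 nL compound by pin tool for 24 h at 37 °C. Viability was then read as CellTiter-Glo luminescence after 15 min at room temperature.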
A general note: In qHTS, concentration-response curves come from the screen itself.
In the case of `COc1ccc(Cl)cc1NC(=O)CSc1nc(=O)[nH]c2c1CCCC2`, the “activity change, negative = cytotoxicity” value was inactive: 11.5%.
Consider `CCOc1ccc(OCC)c(NC(=O)c2csc3c2CCCC3)c1`, for which the “activity change, negative = cytotoxicity” value was inactive: 1.68%.
`Cc1ccc2oc(-c3ccc(NC(=O)c4cccc(F)c4)c(C)c3)nc2c1`: the “activity change, negative = cytotoxicity” value is inactive: 7.27%.
Turning to `CC(=O)N1c2c(cc(Br)cc2S(=O)(=O)NCc2ccccc2Cl)CC1C` (stereo not drawn), the “activity change, negative = cytotoxicity” value was inactive: 18.5%.
As for `COc1ccc(NC(=O)c2cc(C)nc3c2c(C)nn3-c2cccc(Cl)c2C)c(OC)c1`, the “activity change, negative = cytotoxicity” value was inactive: -5.7%.
Take `COc1cc(Cl)c(NC(=O)CN(C)S(=O)(=O)c2ccc3c(c2)CCCC(=O)N3)c(OC)c1`: the “activity change, negative = cytotoxicity” value is inactive: 1.84%.
Then `COc1cc(NC(=O)N2CCC(CN3CCc4ccccc4C3)CC2)cc(OC)c1`, with inactive: -1.3%.
For the compound `COC(=O)c1ccc(CSc2nc3c([nH]c4ccccc43)c(=O)n2-c2cc(C)cc(C)c2)o1`, the “activity change, negative = cytotoxicity” value is inactive: 9.15%.
As to `CN(C(=O)Cn1ncc2c1-c1ccccc1OC2)c1ccc(Br)cc1`, the “activity change, negative = cytotoxicity” value was inactive: 24.1%.
Then `CCCCCn1c(CNC(=O)c2ccc(F)cc2)nc2ccccc21`, with inactive: -12.3%; and `O=C1COc2cc(S(=O)(=O)CCC(=O)N3CCN(c4ccccc4)CC3)c(Cl)cc2N1`, with inactive: 19.9%.
For `Cc1ccc(S(=O)(=O)NCCc2nnc3ccc(SCC(=O)Nc4ccc(OC(F)(F)F)cc4)nn23)cc1` the value was inactive: 5.34%.
Then `CCCc1ccc(-c2ccc(C(=O)Oc3ccc(Br)cc3)cc2)nc1`, with inactive: 5.38%; and `CCOc1ccc(NC(=O)Cn2c(=O)c(CNc3ccccc3)cc3cc4c(cc32)OCCO4)cc1`, with inactive: 10.7%; and `COc1ccc(Cl)cc1C(=O)Nc1c2c(nn1-c1ccc(Cl)cc1)CS(=O)(=O)C2`, with inactive: 1.47%.
For the compound `Cc1cc(C)cc(-n2ccnc(NCc3ccc(F)cc3)c2=O)c1`, the “activity change, negative = cytotoxicity” value is inactive: -23%.
For `CCOC(=O)c1c(C)[nH]c(C)c1S(=O)(=O)N1CCC(C(=O)NCc2ccc(N(C)C)cc2)CC1`, the “activity change, negative = cytotoxicity” value is inactive: -1.85%.
For the compound `CN(C)C1(CNC(=O)COc2ccc(C(C)(C)C)cc2)CCCCC1`, the “activity change, negative = cytotoxicity” value was inactive: 0.404%.
For `O=C(Nc1ccc2c(c1)OCO2)c1cc(-c2ccc(Cl)cc2)on1` the value was inactive: 4.61%; for `CCCCCn1c(-c2cccc(C)c2)nc2ccccc21`, inactive: -4.08%.
Consider `COc1ccccc1OCC(=O)Nc1c(C(=O)c2ccc(C)cc2)oc2ccccc12`, for which the “activity change, negative = cytotoxicity” value is inactive: -3.11%.
Then `COc1ccccc1CNS(=O)(=O)c1ccc(N2CCCCS2(=O)=O)cc1`, with inactive: -25.8%; and `COc1ccc(OC)c(CCNC(=O)C(C)n2c(C)c3cnn(-c4ccccc4)c(=O)c3c2C)c1` (stereo not drawn), with inactive: -1.62%; and `COc1ccc(S(=O)(=O)NCCc2sc(-c3cccc(C)c3)nc2C)cc1`, with inactive: 2%.
With `Cc1ccc(CCNC(=O)c2cccc(Nc3nc4ccccc4nc3-n3nc(C)cc3C)c2)cc1`, the “activity change, negative = cytotoxicity” value is inactive: 3.44%.
For `COc1cc(Br)ccc1C1C(C(=O)Nc2ccc(C)cc2C)=C(C)Nc2nnnn21` (stereo not drawn) the value was inactive: -7.78%; for `COc1ccc(CCNc2nc3ccccc3c3nc(-c4cccc(C)c4)nn23)cc1OC`, inactive: 3.75%.
Turning to `Cc1ccc(NC(=O)CSCc2cnn(-c3ccccc3)c2-n2cccc2)c(Cl)c1`, the “activity change, negative = cytotoxicity” value was inactive: -1.89%.
For the compound `CCc1ccccc1NC(=O)Cn1c(=O)n(-c2ccc(C)c(C)c2)c(=O)c2oc3ccccc3c21`, the “activity change, negative = cytotoxicity” value is inactive: 17.4%.
Then `CC(C)CCNC(=O)c1ccc(Cn2c(SCC(N)=O)nc3ccccc3c2=O)cc1`, with inactive: 17.6%; and `CCOc1cc(C(=O)OCc2cc(=O)n3nc(C4CC4)sc3n2)cc(OCC)c1OCC`, with inactive: -5.78%; and `COc1cc(OC)c(NC(=O)NCc2cccn2Cc2ccccc2)cc1Cl`, with inactive: -4.77%.
With `CCc1ccc(-n2nc(C)c3c(C(=O)N4CCN(c5cccc(Cl)c5)CC4)cc(C)nc32)cc1`, the “activity change, negative = cytotoxicity” value is inactive: 0.964%.
Take `Cc1nn(CC(=O)N2CCN(c3cccc(Cl)c3)CC2)c(=O)c2c1sc1ccccc12`: the “activity change, negative = cytotoxicity” value is inactive: -0.802%.
For `CCOC(=O)c1ccc(NC(=O)CCc2c(C)nc3c(c(C)nn3C(C)(C)C)c2C)cc1` the value was inactive: 2.1%; for `CC1CCCN(S(=O)(=O)c2cc(C(=O)NCc3ccccc3Cl)n(C)c2)C1` (stereo not drawn), inactive: -0.898%; for `Cc1ccc(F)cc1NC(=O)CCSc1nc(-c2ccco2)cc(C(F)(F)F)n1`, inactive: -11.8%.
For `Cc1ccc(NC(=O)C(=O)NCC(c2cccnc2)N2CCc3ccccc3C2)cc1` (stereo not drawn) the value was inactive: -4.05%.
For `COC(=O)c1c(-c2cccs2)csc1NC(=O)c1cc(OC)c(OC)c(OC)c1` the value was inactive: 5.1%; for `CC(C)CCNC(=O)c1nn(C)c2c1CSc1ccccc1-2`, inactive: -0.254%; for `COc1ccc(-c2cn3c(n2)sc2cc(C(=O)Nc4ccc(F)cc4Cl)ccc23)cc1`, inactive: 5.91%.
For the compound `COc1ccc(-n2ccn(CC(=O)Nc3ccc(C)c(C)c3)c(=O)c2=O)cc1OC`, the “activity change, negative = cytotoxicity” value was inactive: 4.47%.
For the compound `CCOc1cc2[nH]c(=O)n(CCCC(=O)NCc3ccc(OC)cc3)c(=O)c2cc1OCC`, the “activity change, negative = cytotoxicity” value is inactive: 1.52%.
For `O=C(NC1CCCCCC1)c1ccc(CS(=O)c2ccc(Br)cc2)o1` (stereo not drawn) the value was inactive: -22.8%; for `COc1cccc(C2c3c(-c4ccccc4O)n[nH]c3C(=O)N2Cc2cccnc2)c1` (stereo not drawn), inactive: -7.1%.
With `CCN(C(=O)c1cc2cc(Br)cc(OC)c2oc1=O)c1ccccc1`, the “activity change, negative = cytotoxicity” value is inactive: 13.6%.
Then `CC(=O)c1ccc(NC(c2ccc(F)cc2)c2nnc(-c3ccccc3)o2)cc1` (stereo not drawn), with inactive: 10.1%; and `CC(C)(C)OC(=O)N1CCC(c2c(C(=O)N3CCN(c4ccccn4)CC3)cnn2-c2ccccc2Cl)CC1`, with inactive: -0.19%.
